Structures are written as SMILES. Among all 150,000 compounds or so, about 540 (0.36%) showed an effect of 50% or more. The list shows a part of the results.

This assay relates to Plasmodium falciparum. Briefly: Primary screen in NF54 nanoGlo assay, in single point, at 2uM, 72h; a lower Z score goes with more inhibition. Format: functional, Erythrocyte. The following applies: timepoint 72 hour.
As usually defined, the % Inhibition is the relative decrease from the control value, in per cent. As for `Cc1nnc(CN2Cc3ccccc3S2(=O)=O)s1`, the “% Inhibition” value is -15% and the Z score is 2.19.

On to `O=C(NC[C@](O)(c1ccoc1)c1ccco1)c1c(F)cccc1F`, for which the “% Inhibition” value is on record as -5% and the Z score is 0.91.

For the compound `CCCNC(=O)Nc1nn(-c2cccc(F)c2)c2cccc(N3CCOCC3)c12`, the “% Inhibition” value is -11% and the Z score amounted to 1.4.

On to `O=C1NCCN2CCN(Cc3ccc4c(c3)CCO4)CC[C@@H]12`, for which the “% Inhibition” value worked out at 8% and the Z score was -1.53.

Turning to `Cc1ccc(N2CCN(c3ccc(C)cc3)C2c2ccc3c(c2)OCO3)cc1`, the “% Inhibition” value was -8% and the Z score is listed as 1.05.

As for `Cc1ncsc1CCC(=O)N1CCN(CC2CC2)[C@@H]2CS(=O)(=O)C[C@@H]21`, the “% Inhibition” value is -14% and the Z score turned out to be 1.8.

Turning to `Cc1ccc(C)c(-n2nc(CC(N)=O)nc2[C@H](O)C2CCCCC2)c1`, the “% Inhibition” value is -8% and the Z score is 1.08.

For `Cc1ccc2c(c1)c(=O)n(C(C)(C)C)n2CC(=O)Nc1ccc(Cl)cc1F`, the “% Inhibition” value is reported as -4% and the Z score is 0.54.

On to `CC(NC(=O)N1CCCC1c1cccs1)C1CCCO1` (centres undefined), for which the “% Inhibition” value was -3% and the Z score is given as 0.4.

For `Cc1cc(CN(C)Cc2cc(Cl)ccc2F)on1`, the “% Inhibition” value is recorded as -9% and the Z score was found to be 1.37.

For `O=C(Nc1cccnc1)c1ccc(S(=O)(=O)NC2CC2)cc1`, the “% Inhibition” value was -10% and the Z score was determined as 0.86.

With `C[C@](O)(CNC1CCN(OCc2ccccc2)CC1)c1ccsc1`, the “% Inhibition” value was -7% and the Z score worked out at 1.18.

Regarding `O=C(CCc1c[nH]cn1)N1CC[C@H](c2ccnc(-c3ccncc3)c2)C1`, the “% Inhibition” value is listed as -5% and the Z score was determined as 0.9.

Turning to `Nc1ccc2ncnc3c2c1C(=O)c1ccccc1-3`, the “% Inhibition” value is reported as -1% and the Z score stood at 0.23.

Turning to `CS(=O)(=O)Nc1cccc(Oc2ncccc2C(=O)NC2CC2)c1`, the “% Inhibition” value worked out at 3% and the Z score was -0.59.

Turning to `CO[C@H]1CCCN(Cc2[nH]c(=O)[nH]c2C(=O)O)C1`, the “% Inhibition” value is reported as -10% and the Z score was determined as 1.02.

With `CN1CCN(C(=O)Cn2ccc(NC(=O)Cc3cccs3)n2)CC1`, the “% Inhibition” value amounted to 1% and the Z score is given as -0.16.

Take `CCOC[C@H]1CCCN(C(=O)NCc2coc3ccccc23)C1`: the “% Inhibition” value was 10% and the Z score is -1.82.

For `Cc1ccc(C2=NC3(CCN(Cc4ccccc4)CC3)N[C@H](c3cc(Cl)ccc3O)C2)cc1`, the “% Inhibition” value is recorded as 9% and the Z score is reported as -0.98.

For `COc1cc2c(cc1-c1nccn1Cc1noc(C(C)C)n1)OCO2`, the “% Inhibition” value is recorded as 5% and the Z score is -0.45.

For the compound `Fc1cc(Br)cc2c1CCN(c1ncnc3nc[nH]c13)C2`, the “% Inhibition” value is given as 7% and the Z score is -1.16.

In the case of `NC(=O)c1ncn(C2CCCN(C(=O)NCCC3CC4CCC3C4)C2)n1` (centres undefined), the “% Inhibition” value was -20% and the Z score came to 2.86.

Take `O=C(Nc1cccc2cccnc12)c1csc2c1CCCC2`: the “% Inhibition” value is reported as -16% and the Z score is reported as 2.18.

As to `O=C(c1ccc2c(c1)OCO2)C1[C@@H](c2ccc(Cl)cc2)C2CCCN2[C@@]12C(=O)Nc1ccccc12` (some centres undefined), the “% Inhibition” value was -4% and the Z score stood at 0.55.

With `CNC(=O)N1CCCC(C(F)(F)F)C1C` (centres undefined), the “% Inhibition” value stood at 3% and the Z score is on record as -0.3.

As to `COc1cccc(OCc2n[nH]c(C[C@H](C)n3cccn3)n2)c1`, the “% Inhibition” value is -14% and the Z score is listed as 1.62.

On to `Cc1cc(C)n(CCNC(=O)c2cn[nH]c2)c(=O)n1`, for which the “% Inhibition” value is recorded as -5% and the Z score turned out to be 0.73.

Turning to `CC1CC(C)CN(C(=O)CCc2nnc3ccc(N4CCOCC4)nn23)C1` (centres undefined), the “% Inhibition” value is 3% and the Z score is recorded as -0.33.

Turning to `O=C1CCCCN1CCCC(=O)N1CCO[C@@H](CC2CCCCC2)C1`, the “% Inhibition” value came out at 13% and the Z score was -1.69.

`Cc1cc(O[C@H]2CCN(C(=O)Cn3cnc4ccccc4c3=O)C2)nc(C)n1`: the “% Inhibition” value is listed as -3% and the Z score was 0.51.

`Cc1cccc2nc(Cn3cnc(C#N)c3C#N)cn12`: the “% Inhibition” value is recorded as -3% and the Z score is 0.61.

On to `Cc1noc(C(C)C)c1C(=O)N1CC(N2CCNC2=O)C1`, for which the “% Inhibition” value is -3% and the Z score stood at 0.4.

On to `Cc1cc(CNC(=O)N(C)CC2(C)COC2)n[nH]1`, for which the “% Inhibition” value stood at 2% and the Z score is -0.32.

Regarding `Cc1cccc(OC2CN(c3cc([C@H]4CCOC4)nc(NCCO)n3)C2)c1`, the “% Inhibition” value is -2% and the Z score stood at 0.26.

With `CN(Cc1csc(-c2ccccc2)n1)S(=O)(=O)N1CCCC1`, the “% Inhibition” value is reported as -12% and the Z score turned out to be 2.24.

In the case of `N#CCCN(Cc1ccco1)C(=O)[C@@H]1Cc2cc(Cl)ccc2O1`, the “% Inhibition” value is reported as -4% and the Z score turned out to be 0.36.

As to `CC(C)C[C@@]1(C)CC(=O)N(CC(=O)NCCc2ccc(F)cc2)C1=O`, the “% Inhibition” value is listed as 2% and the Z score is -0.26.

Take `O=C1[C@@H]2CCCCN2C(=O)N1Cc1coc(-c2ccc(F)cc2)n1`: the “% Inhibition” value was -1% and the Z score is on record as 0.08.

Turning to `O=C(O)[C@@H]1CN(C(=O)Cc2cn3c(n2)CCCC3)C[C@H]1c1ccc(Cl)cc1`, the “% Inhibition” value is -14% and the Z score came out at 1.51.

For the compound `COc1ncc(NCc2c[nH]nc2C)cc1C#N`, the “% Inhibition” value came to 1% and the Z score is -0.1.

Consider `O=C(CCCOc1ccc(F)cc1F)Nc1nnn[nH]1`, for which the “% Inhibition” value is 8% and the Z score is reported as -0.97.

As for `NS(=O)(=O)c1ccccc1CCCOCc1ccccc1`, the “% Inhibition” value is listed as -8% and the Z score is 1.15.
